Reference: PubChem BioAssay (Tox21)
“And” between values parts separate entries of the source, which are not always exact repeats. Identical values can stand only once. The inconclusive results got no clear call from the source; some entries with a clear call stand among them for comparison. Where the call is inconclusive, the potency comes from a doubtful curve fit. The source made the active and inactive calls. The call rests on the fitted dose curve; in most records, active means well fitted activation curve with a large enough effect in the signal ratio in the repeat runs (not every such curve was filed as active); inconclusive means weak or mixed curves, or effect the other way; inactive means no such curve, though single readings can be large or run the other way; the % refers to the signal ratio.

Target: Peroxisome proliferator-activated receptor gamma (Homo sapiens) (UniProt P37231)
Sequence of UniProt P37231 (P37231 whole entry, looked up): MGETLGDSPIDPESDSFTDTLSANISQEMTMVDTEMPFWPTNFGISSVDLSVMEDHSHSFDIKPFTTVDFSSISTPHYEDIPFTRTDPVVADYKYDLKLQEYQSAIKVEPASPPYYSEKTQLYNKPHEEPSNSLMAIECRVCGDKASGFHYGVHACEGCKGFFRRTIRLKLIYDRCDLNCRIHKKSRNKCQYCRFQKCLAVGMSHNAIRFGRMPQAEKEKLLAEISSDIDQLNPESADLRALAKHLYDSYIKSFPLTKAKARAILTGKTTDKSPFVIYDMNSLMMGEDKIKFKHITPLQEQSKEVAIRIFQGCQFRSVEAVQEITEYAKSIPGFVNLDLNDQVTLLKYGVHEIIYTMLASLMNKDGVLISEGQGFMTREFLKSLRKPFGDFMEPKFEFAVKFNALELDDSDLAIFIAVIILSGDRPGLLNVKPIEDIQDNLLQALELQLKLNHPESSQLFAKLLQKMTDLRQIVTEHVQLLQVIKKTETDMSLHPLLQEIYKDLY
Experiment: qHTS assay to identify small molecule agonists of the peroxisome proliferator-activated receptor gamma (PPARg) signaling pathway (AID 743094)
Conditions: HEK293H PPARg-UAS-bla, beta-lactamase FRET ratio, 17 h; activation: at 57 µM (top of the series) unless noted
Excerpt: U.S. Tox21 Program National Center for Advancing Translational Sciences [NCATS] NIH Chemical Genomics Center [NCGC] U.S. Environmental Protection Agency [EPA] National Institutes of Environmental Health Sciences [NIEHS] National Toxicology Program [NTP] U.S. Food and Drug Administration [FDA] Tox21 Assay Overview: The peroxisome proliferator-activated receptors (PPARs) are lipid-activated transcription factors of the nuclear receptor superfamily with three distinct subtypes namely PPAR alpha, PPAR delta (also called PPAR beta) and PPAR gamma (PPARg). All these subtypes heterodimerize with Retinoid X receptor (RXR) and these heterodimers regulate transcription of various genes. PPAR-gamma receptor (glitazone receptor) is involved in the regulation of glucose and lipid metabolism. To identify the compounds that activate PPAR-gamma signaling, GeneBLAzer PPAR gamma UAS-bla HEK293H cell line (Invitrogen, Carlsbad, CA, USA) containing a beta-lactamase reporter gene under control of the control of an upstream activator sequence (UAS) stably integrated into HEK293H cells was used to screen Tox21 compound library.
Tox21 Assay Protocol Summary: PPARg-bla cells were dispensed at 3000 cells/6uL/well in 1536-well black wall/clear bottom plates using a Multidrop Combi (Thermo Fisher Scientific, Waltham, MA) dispenser. After the assay plates were incubated at 37C and 5% CO2 for 5 h, 23 nL of compounds dissolved in DMSO, positive controls or DMSO only was transferred to the assay plate by a Pintool station (Kalypsys, San Diego, CA). The assay plates were incubated at 37C for 17 h. After 1 uL of LiveBLAzerTM B/G FRET substrate was added using a Bioraptr Flying Reagent Dispenser (FRD) workstation (Beckman Coulter, Indianapolis, IN, USA), the plates were incubated at room temperature for 1 h, and fluorescence intensity was measured by an Envision plate reader (PerkinElmer, Shelton, CT).
On the % scale 0 is the no-effect control and ±100 the full control effect; potency means the concentration at half of the fitted maximal effect; tags describe the fitted curve by direction and shape or compound fluorescence and quenching.

SMILES | activation | Potency
c1ccc(CNCc2ccccc2)cc1 | inactive: -5.21% | 
CCCCCCCCCCCC(=O)OCC(C)OC(=O)CCCCC(=O)O (stereo not given) |  | inconclusive: 15.1 µM [cytotoxic, partial curve]
Cc1ccc2nc(N)[nH]c(=O)c2c1Sc1ccncc1 | inconclusive: -11.3% | 
Cc1ccc(S(=O)(=O)O)cc1C |  | inactive
N[C@@H](COP(=O)(O)O)C(=O)O | inactive: 11% | 
CCc1nn(CCCN2CCN(c3cccc(Cl)c3)CC2)c(=O)n1CCOc1ccccc1 | inconclusive: -14.1% | 
CCCCCCCCCCCCS |  | inactive
COc1ccc(C2C(=O)c3ccccc3C2=O)cc1 | inactive: -1.57% | 
Cc1ccc2c(c1[N+](=O)[O-])C(=O)c1ccccc1C2=O | inconclusive: -19.4% | 
COc1ccc(/C=C/S(=O)(=O)NC(=O)c2ccc(C)cc2Cl)cc1 | inactive: 2.48% | 
NS(=O)(=O)c1cc2c(cc1Cl)NC=NS2(=O)=O |  | inactive
CCCCCCCCCCCCCCN(CCO)CCO |  | inconclusive: 61.6 µM [single point]
CCN(CC)CCNC(=O)COc1ccc(OC)cc1 | inactive: 3.96% | 
CC(CCc1ccc(O)cc1)NCCc1ccc(O)c(O)c1 (stereo not given) |  | inconclusive: 26.8 µM [inhibitor]
CCCCCCCCC |  | inconclusive: 63.3 µM [activator, single point]
Nc1ccc2c(O)cc(S(=O)(=O)O)cc2c1 | inconclusive: -14% | inconclusive: 27.6 µM [rising, partial curve, poor fit]
O=C(O)CCCCCCCCCCCC(=O)O | inconclusive: 13.9% | 
CCC(=O)c1ccc2c(c1)N(CCCN(C)C)c1ccccc1S2 | inconclusive: -14.5% | 
N[C@@H](Cc1c[nH]c2ccccc12)C(=O)O |  | inconclusive: 24.5 µM [rising, partial curve, poor fit]

SMILES | activation | Potency
Cc1c[nH]c2ccccc12 | inactive: -4.6% | 
NC(=O)N1C(=O)C(C(=O)c2cc(Cl)cs2)c2cc(F)c(Cl)cc21 (stereo not given) |  | inconclusive: 8.71 µM [inhibitor, full curve]
Nc1cccc2c1CN(C1CCC(=O)NC1=O)C2=O (stereo not given) | inactive: -1.42% | 
C[C@]1(Cn2ccnn2)[C@H](C(=O)O)N2C(=O)C[C@H]2S1(=O)=O |  | inconclusive: 0.239 µM [inhibitor, full curve]
CNCc1ccc(NC(=O)c2c[nH]c3c2C(=O)CCC3)cc1 | inactive: -1.41% | 
O=C(O)c1cc(-c2ccccc2)nc2ccccc12 |  | inconclusive: 21.3 µM [activator] and inconclusive: 22.1 µM [fluorescent]
COc1cc(C)c(Cc2cnc(N)nc2N)cc1OC | inactive: -1.02% | 
CCC1CCC(CCC(=O)O)C1 (stereo not given) | inconclusive: 6.96% [at 78.9 µM] | 
CC(C)OC(=O)c1cc2c(OCC(O)CNC(C)(C)C)cccc2[nH]1 (stereo not given) | inconclusive: -13.3% | 
c1cc(N(CC2CO2)CC2CO2)ccc1Cc1ccc(N(CC2CO2)CC2CO2)cc1 (stereo not given) |  | inconclusive: 13.8 µM [rising, full curve]
Cc1cc(-c2ccc(N=Nc3cc(S(=O)(=O)O)c4ccccc4c3N)c(C)c2)ccc1N=Nc1cc(S(=O)(=O)O)c2ccccc2c1N | inconclusive: -11.9% [at 78.9 µM] | 
O=c1[nH]cc(F)c(=O)[nH]1 | inconclusive: 7.57% [at 78.9 µM] | inconclusive: 57 µM [activator, partial curve, poor fit]
COC(=O)CCCCCCCC(=O)OC | inactive: -0.86% | 
Brc1cc(-c2ccc(Br)c(Br)c2Br)cc(Br)c1Br |  | inconclusive: 27.1 µM [rising, single point]
CCOc1cccc(-n2cc(C(=O)N3CCN(c4cc(C(=O)O)c5ccccc5c4)CC3)nc2-c2ccc(C)cc2)c1 |  | inconclusive: 11.7 µM [fluorescent, partial curve]
COc1ccc(-c2cc(=S)ss2)cc1 | inconclusive: -11.7% | 
COC(=O)CC(=O)OC |  | inconclusive: 64.2 µM [activator, single point]
COc1cc2c(cc1OC)C(C(C(=O)N(CCc1ccc(OC)c(OC)c1OC)CCc1ccc(OC)c(OC)c1OC)c1ccccc1)=NCC2 (stereo not given) |  | inconclusive: 13.4 µM [rising, partial curve]
c1ccc2c(c1)ccc1ncccc12 |  | inconclusive: 24.4 µM [activator, partial curve, poor fit]
